B1: chr6:96891104:96891324:-|CDS|ENSG00000123545|unk|FALSE|unique (ssRNA)
RNA: GGGAGUUCUACAGUCCGACGAUCUAAUCAUAAGCUUUUCCCAGAAACCUGGACUGCUGAGAAAAUAAUGCAGGAAUACCAGUUAGAACAGAAAGAUGUGAAUUCUCUUCUUAAAUAUUUUGUUACUUUUGAAGUCGAAAUCUUCAACAGAGGAUUGAGCAUCA
B2: ENSG00000198589:be:win_6601|CDS|ENSG00000198589|bound_else_gene|NA|bound_elsewhere_windowed (ssRNA)
RNA: GGGAGUUCUACAGUCCGACGAUCACCCAGCGAUGGCAACACAGAGAGAUAUCUAAUUUUGAGUACUUGAUGUUUCUCAACACGAUAGCAGGACGGAGUUAUAAUGACUUAAAUCAGUAUCCAGUGUUUCCUUGGGUCAUCACUCAACAGAGGAUUGAGCAUCA
B3: chr1:93866283:93869944:-|three_prime_utr|ENSG00000067334|control|control|control (ssRNA)
RNA: GGGAGUUCUACAGUCCGACGAUCUUUAUUUACUUAUUAAAGACGUUUGGAAAACUAACACCAUCAUCUAAAUUAAUUUACCAUAGACUGGCCCUGUUCAUACAGGAAUUUGUAUUUGGAAAAAGUUGAUUUGAGAAUCGAUUACAACAGAGGAUUGAGCAUCA
B4: chr6:52279506:52279615:-|CDS|ENSG00000112118|unk|total|mutant (ssRNA)
RNA: GGGAGUUCUACAGUCCGACGAUCUGAGUGUGGCAUUUUUAAGACAGGACGGAGAUCACUCUGUCCCUCUGUGUGCCUUUUUCCCGGAUGAGGAGAACAAUCCCCUUGAGACAGAAUAUGGCCUUUCUGUCUACAAGGAUCACCCAACAGAGGAUUGAGCAUCA
B5: chr8:133458587:133458688:-|3pUTR|ENSG00000008513|msi1|FALSE|unique (ssRNA)
RNA: GGGAGUUCUACAGUCCGACGAUCAUGAAACAAAAGCCCUUACUUGGGAAAAGGGACCCCCACCAGCGGCCCUGCUUGCUCCGUAGCUGGGAACAUCUUUUCUGGUUUCCUGAGCCAGCACCUGAAUUGCAACGAAGCUCUGAGCAACAGAGGAUUGAGCAUCA
B6: chr10:62807900:62808002:+|3pUTR|ENSG00000181915|unk|total|mutant (ssRNA)
RNA: GGGAGUUCUACAGUCCGACGAUCCAAAAAGUUGAUCCGCUUACCAAGAUUAUUAACCGCAAUGUAUGUGUUAUAAUACAACUCCGUACAUUAAAGCUACGAAAACUCAUCCUGGCUGCCGGACCGUAAUAAAGGAAGAAUUAUCAACAGAGGAUUGAGCAUCA
B7: chr17:64498535:64498649:-|3pUTR|ENSG00000108654|unk|FALSE|unique (ssRNA)
RNA: GGGAGUUCUACAGUCCGACGAUCUUAAACUGAGGCUUUAAUUGAUGUUAAUGCCUUAUGUCAAAUGUAAAGUUAGAAUUUGCUAGGGCUGGGAUAGGGAGUGAUAUUUCUAGGACUUAGACAUUGAAAACUAAUUCAGCCUGUCAACAGAGGAUUGAGCAUCA
B8: chr10:5457295:5457390:+|3pUTR|ENSG00000173848|msi1_unk|FALSE|overlapping (ssRNA)
RNA: GGGAGUUCUACAGUCCGACGAUCUCUGGAUUCAUCAUGGCUUUCUAAUACCAAUUGUAAUAUUUACAAUAUUCACCAAAACUUAGAAUUUUGCAAAUGCUGGAAUUCUGCCAGUGUUUCUUUGCUAAGCCUUGCAUGCAAAAUCAACAGAGGAUUGAGCAUCA
B9: ENSG00000198589:be:win_6801|CDS|ENSG00000198589|bound_else_gene|NA|bound_elsewhere_windowed (ssRNA)
RNA: GGGAGUUCUACAGUCCGACGAUCAAAAAGAGCAGCAUUCUUCGCUGAGCGUUAUGAAUCAUGGGAAGAUGAUCAAGUUCCAAAGUUUCACUAUGGUACUCAUUACUCAACUGCAAGUUUUGUUCUUGCAUGGCUGCUAAGAAUCAACAGAGGAUUGAGCAUCA
B10: chr15:57961136:57961294:-|CDS|ENSG00000128918|control|control|control (ssRNA)
RNA: GGGAGUUCUACAGUCCGACGAUCGAGAUUUAAGACGAUGGAUGAAGUUAUCGAAAGAGCCAAUAACUCAGACUUUGGACUCGUAGCAGCUGUCUUUACUAAUGACAUCAACAAGGCCCUCACAGUGUCUUCUGCAAUGCAAGCCAACAGAGGAUUGAGCAUCA
B11: chr5:138349049:138349150:+|3pUTR|ENSG00000120709|msi1|FALSE|unique (ssRNA)
RNA: GGGAGUUCUACAGUCCGACGAUCGAGAAGGUCUACAGUUAUCAUUAUUUUAAUUCCAUUACUUUCAGUCUGGAAAACUAAGCUAGUCAGAACUGUCAUCUUGCUUCCCAAUCUAAGAACCUGUGGCCCUGGAACACUUUUCAACAACAGAGGAUUGAGCAUCA
B12: chr6:49492913:49492980:+|3pUTR|ENSG00000031691|msi1_unk|total|mutant (ssRNA)
RNA: GGGAGUUCUACAGUCCGACGAUCUGUUGAAUAUUUUCUACUGUCAUCAAAACAUAUUCCCAAAAAGUAUUAAAAAGGAACCUCCGCACAUUUAUUUUAUUAAAACAAGAAAACCCAAAAUAUAUAAACCUUUUCUUAUUAUGACAACAGAGGAUUGAGCAUCA
B13: ENSG00000152661:stop:overlap|stop_codon|ENSG00000152661|stop_codon|NA|stop_codon (ssRNA)
RNA: GGGAGUUCUACAGUCCGACGAUCCUUCAAGCAGAGCCAGCAGUCGUGCCAGCAGCAGACCUCGGCCUGAUGACCUGGAGAUCUAGAUACAGGCUUGAAAGCAUCAAGAUUCCACUCAAUUGUGGAGAAGAAAAAAGGUGCUGUCAACAGAGGAUUGAGCAUCA
B14: chr22:31279490:31279591:+|3pUTR|ENSG00000182541|msi1|total|mutant (ssRNA)
RNA: GGGAGUUCUACAGUCCGACGAUCAGCAGCUUGGGCUGGGAAGAGGUGGUGGCAGAGUCUCAAAGCUGAGAUGCUGAGAGAGACCGCUCCCUGAGCUGGGCCAUCUGACUUCUACCUCCCAUGUUUGCUCUCCCAACUCAUCCGCAACAGAGGAUUGAGCAUCA

The list shows a part of the results.

This experiment has as its target MSI1 full-length (mouse, UniProt Q61474 1-362). As to the kind of experiment: nsRBNS (natural sequence RNA bind-n-seq); RBNS binding buffer (assumed for nsRBNS): 25 mM Tris pH 7.5, 150 mM KCl, 3 mM MgCl2, 0.01% Triton X-100, 500 ug/ml BSA, 20 U/ml SUPERase-In, 4 C; UNK is unkempt and MSI1 is Musashi-1; names of the RNAs are library labels; protein concentration not given here; high values mean tight binding.
Sequence of UniProt Q61474 (Q61474 whole entry): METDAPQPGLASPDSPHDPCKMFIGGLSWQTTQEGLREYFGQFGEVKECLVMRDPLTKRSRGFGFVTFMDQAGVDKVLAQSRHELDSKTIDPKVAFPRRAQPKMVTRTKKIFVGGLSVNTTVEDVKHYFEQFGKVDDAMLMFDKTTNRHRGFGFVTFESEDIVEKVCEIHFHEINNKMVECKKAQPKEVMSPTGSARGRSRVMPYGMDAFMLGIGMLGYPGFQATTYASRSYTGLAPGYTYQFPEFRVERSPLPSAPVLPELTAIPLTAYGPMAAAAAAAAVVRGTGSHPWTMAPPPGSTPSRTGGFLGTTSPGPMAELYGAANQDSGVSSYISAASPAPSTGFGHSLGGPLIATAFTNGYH
On to B1, for which the binding signal came out at 0.691 enrichment R.

Consider B2, for which the binding signal amounted to 0.341 enrichment R.

Molecule B3 displayed a binding signal of 0.451 enrichment R.

Molecule B4 displayed a binding signal of 0.235 enrichment R.

Molecule B5 yielded a binding signal of 0.322 enrichment R.

B6 yielded a binding signal of 0.286 enrichment R.

Molecule B7 showed a binding signal of 0.784 enrichment R.

The molecule B8 yielded a binding signal of 0.302 enrichment R.

Molecule B9 returned a binding signal of 0.144 enrichment R.

B10 registered a binding signal of 0.377 enrichment R.

B11 showed a binding signal of 0.392 enrichment R.

On to B12, for which the binding signal came to 1.81 enrichment R.

In turn, B13 gave a binding signal of 0.49 enrichment R.

In turn, B14 came in with a binding signal of 0.431 enrichment R.
